# According to PMC4634149:
# Results are given in words; binding and its absence hold for the method and conditions named. For some assays here: In cells and extracts the contact can be indirect. Some binding calls cover weakened binding; strength is not graded here. For some assays here: Tags and fused reporters may be left off the sequences shown.
# T1: GST-AIP1 (full-length GST::AIP1) (Arabidopsis thaliana) (UniProt Q8H0V4)
# T1 sequence: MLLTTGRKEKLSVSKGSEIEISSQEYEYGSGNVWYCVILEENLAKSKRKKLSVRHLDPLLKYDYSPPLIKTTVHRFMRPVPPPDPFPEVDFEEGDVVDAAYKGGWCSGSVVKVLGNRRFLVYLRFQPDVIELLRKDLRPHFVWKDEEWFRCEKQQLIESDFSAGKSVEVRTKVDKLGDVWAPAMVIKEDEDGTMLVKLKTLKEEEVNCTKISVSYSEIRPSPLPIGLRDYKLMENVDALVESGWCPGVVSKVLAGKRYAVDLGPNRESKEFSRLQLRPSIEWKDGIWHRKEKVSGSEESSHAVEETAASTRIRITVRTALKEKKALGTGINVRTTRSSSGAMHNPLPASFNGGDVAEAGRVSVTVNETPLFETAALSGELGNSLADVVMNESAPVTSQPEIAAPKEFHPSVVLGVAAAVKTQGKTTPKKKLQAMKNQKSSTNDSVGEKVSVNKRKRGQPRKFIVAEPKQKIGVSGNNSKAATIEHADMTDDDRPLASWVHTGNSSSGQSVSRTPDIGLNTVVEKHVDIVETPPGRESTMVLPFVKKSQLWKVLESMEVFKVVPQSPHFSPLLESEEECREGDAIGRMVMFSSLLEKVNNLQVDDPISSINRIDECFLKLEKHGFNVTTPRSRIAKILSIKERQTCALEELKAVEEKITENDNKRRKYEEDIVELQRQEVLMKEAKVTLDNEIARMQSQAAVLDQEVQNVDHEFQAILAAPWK
# T2: C-terminal portion of AIP1 containing the DUF724 domain (Arabidopsis thaliana) (UniProt Q8H0V4)
# T2 sequence: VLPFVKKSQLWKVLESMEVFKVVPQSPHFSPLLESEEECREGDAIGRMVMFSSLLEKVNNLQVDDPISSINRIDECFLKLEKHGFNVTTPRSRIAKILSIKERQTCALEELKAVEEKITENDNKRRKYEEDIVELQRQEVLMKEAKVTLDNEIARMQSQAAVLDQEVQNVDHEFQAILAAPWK
# B1: HIS-AIP1 (protein, UniProt Q8H0V4 1-722)
# chain: T1 sequence
# B2: ORC1a (protein, UniProt Q710E8 1-809)
# chain: MASSLSSKAKTFKSPTKTPTKMYRKSYLSPSSTSLTPPQTPETLTPLRRSSRHVSRKINLGNDPIDLPGKESVEEINLIRKPRKRTNDIVVAEKSKKKKIDPEVSFSPVSPIRSETKKTKKKKRVYYNKVEFDETEFEIGDDVYVKRTEDANPDEEEEEDPEIEDCQICFKSHTNTIMIECDDCLGGFHLNCLKPPLKEVPEGDWICQFCEVKKSGQTLVVVPKPPEGKKLARTMKEKLLSSDLWAARIEKLWKEVDDGVYWIRARWYMIPEETVLGRQRHNLKRELYLTNDFADIEMECVLRHCFVKCPKEFSKASNDGDDVFLCEYEYDVHWGSFKRVAELADGDEDSDQEWNGRKEEEIDYSDEEIEFDDEESVRGVSKSKRGGANSRKGRFFGLEKVGMKRIPEHVRCHKQSELEKAKATLLLATRPKSLPCRSKEMEEITAFIKGSISDDQCLGRCMYIHGVPGTGKTISVLSVMKNLKAEVEAGSVSPYCFVEINGLKLASPENIYSVIYEGLSGHRVGWKKALQSLNERFAEGKKIGKENEKPCILLIDELDVLVTRNQSVLYNILDWPTKPNSKLVVLGIANTMDLPEKLLPRISSRMGIQRLCFGPYNHRQLQEIISTRLEGINAFEKTAIEFASRKVAAISGDARRALEICRRAAEVADYRLKKSNISAKSQLVIMADVEVAIQEMFQAPHIQVMKSVSKLSRIFLTAMVHELYKTGMAETSFDRVATTVSSICLTNGEAFPGWDILLKIGCDLGECRIVLCEPGEKHRLQKLQLNFPSDDVAFALKDNKDLPWLANYL
# B3: CDT1a (protein, UniProt Q9SJW9 1-571)
# chain: MSTPGSSRSIPFKSKKRLVMDSPSSKSQTGNPNPSSVALPTPEKPLENMLSRSRNRSVALSVKEIRQAAGSRRRSEDPVASSAKSRLFFDSSSSSPSKRKSSNKNAEKEKLPEKYENLGKFFEALDNSMLLSKLRGSKPTFSNISKQIEHLTERRFCYSHLAQIKHILPEAIEIKRVLIHDETTCCMKPDLHVTLNADAVEYNDKSKSESKKIALRKVFRARLADFVKAHPQGDEVPEEPLPEPFNRRKPVENSNVEVKRVSSLMEEMASIPASKLFSSPITSTPVKTTSSLAKPTSSQINIAPTPTKPTSTPAKQTLSEINILPTPVKPVSTLAKFPSTPAIIDSTPVITATPPEFASTPARLMSTSLAARPLKRSNGHTNPDDISADPPTKLVRRSLSLNFDSYPEDERTMDFTDDIPIDQVPEEDVSSDDEILSILPDKLRHAIKEQERKAIEDQNPAISLAKRRRKMIACLPKLFNVIHYLIQSIRRWVITKEELVHKIIAGHSDITDRKEVEEQLILLQEIVPEWMSEKKSSSGDVLVCINKLASPLTIRSRLEEENKQEMAPLLS
# B4: ORC2 (protein, UniProt Q38899 1-363)
# chain: MEDIENIEEDEYGFSRNYFLAKELGGASKRSAHKLSDIHIVDEQELRETASTIEMKHSKEISELMSDYKTMYSKWVFELRCGFGLLMYGFGSKKALVEDFASASLTDYSVVVINGYLPSVNLKQVLLALAELLSELLKCKRKSSGSLSKGQETFPSRSMDDILSFLHGPQSGDKDCFICVVVHNIDGPALRDPESQQTLARLSSCSHIRLVASIDHVNAPLLWDKKMVHKQFNWLWHHVPTFAPYNVEGVFFPLVLAQGSTAQTAKTAAIVLQSLTPNGQNVFKILAEYQLSHPDEDGMPTDDLYSASRERFFVSSQVTLNSHLTEFKDHELVKTKRNSDGQECLNIPLTSDAIRQLLLDLNQ
# B5: ORC6 (protein, UniProt Q9ZVH3 1-284)
# chain: MDISDIGRKLSLDNNKLLIRKAAEIRRLCDAQFDSSIIGVGEICKAVICLEIAATRLQIIFDRQAAVKLSGMSEKAYSRSFNSLQNVIGIKIKLNVRELAVQFGCVRVIKSVQNVLSSYKERFLASLPASRRANADFTRPVFTAAAFYLCAKKQKLKVDKLRLIEVCGTSESEFSCVSTSMTDLCFDCVGISKEKKDAKDVKGNRDLLDVLPGKRRLEDGGYSSGDESSCYKRHKKMEEAKYEDWKSTVVNSIKKNPEKGTKRVIQASLNFPKKSETKELQVDS
# B6: ORC5 (protein, UniProt Q6EWX0 1-534)
# chain: MPPKEESSKVTRRSTRSSASVTVENSEPIESHTPTIDDLTFGEESITIDAVLSNFPGRRSQIFDFIRLMGPLDCPTLPIMIYGGASTGKTSVVLQVLRHLNRPFVYSSCRTCYNPRILFESILNQSLLHRKCSLNGYSSAKRCDKPSDFVNLLREALSSVIKTLESTSETSRSDKPDEKPMGKMVYLILDNVDLIRDWDKGTIILQFLFSLYTVLKMPQLGIILISGLPPDVYYSNMGYTDPIPLYFPEYSEEDLRQIFLRNQPNRKLYSAFLDVVLKPFCRVTRRVEELSTTFSLLFRKFCEPLDDLGISPNEDMKRRLYSHLKPLIAHCLNEIFRVSSHPHDGETRGERRQKASYSSENREELEILDFHMSTSAKFLLLSAFLASRNPATLDASMFDSTGGMDNRKRKRKASEKSMEKKEIAEQEAVMKGPGSFPLERLLAIFQCIASVGDSSFGEEDEEEENTTGYDKENNNLMSDILLQVSSLCDANFLIKSGSCPLEGSIRYRSMVSEDLAQKVAKSLSFPLSKYLYRR
# B7: ORC4 (protein, UniProt Q6EWX1 1-417)
# chain: MGKETPAEKSLNLIRGRLCDPSYVFRPLSASSDSNYSKLKFIVSTSITEGCNNSMLLLGPRGSGKAAVLDLGVGDLLEQFPDSVSVIRLNGLLHSDDNCAFKEIAKQLCMEHHLLFSKMASFDDNSQFIIAMLRACGLAHKTIIFVLDEFDMFAQGKQRLLYSLLDAMQSVTSQAVVVGISSRLDADQLLEKRVRSRFSHRKFLFLPPSREELDGLFVHLLSLPADSGFPSGYVSRFNDKIKNLTSDTRFKDILKTLFNANSTVNSFLKFIFCAVSLMNLESGLLSLENFKAALSSMQRQPKLEAVRDCSVLELYLLVCMRRLEVKEQSSYNFISVMKEYKAIHDSFHTSDYYAQNVCLRAFEHLRERQVICYAENRGQSQTGEYRLQKLLISASELHQGMRSHACCPAILLKLLDH
# B8: CDT1b (protein, UniProt Q9M1S9 1-486)
# chain: MSSSSKIDSEKPVMVSESLFSTKTPIKTVKRQIFSSSPKPESVIKLPERFEILEEFFNGLDTAIRLLKLKGSSTTYANICPKIEYLTNRIFSYDHLAQMKHIYPEAIELKRVLKFVEDTCCMKPRLHIKLNTDAIVVEDTICGTKYMELRKVFHSKLVDFRKAHPKDEIPKELLPEPFNSPQRDSYSGIVSVGLGEPKLEVGGFDVHMEEIEQEEQDVNKVIPDSTLSHIESRIVETPVKDLSTPSKDLSTPIRLMSATPTLQLSKRCIELTPEGGDDNSLRSTNSLARGPSRSLNFDTFEEDAIEKDDIGNESDDKGINYEEDGLLQSVKGPSRSLNFDTLEEETIVKDDISNESGDEKSNYEGDNASDDDSLLQSMIERPKTEPEKHNLPQLVNLIHRVFHSTNRTVITKEELLYKIIANQINITDRREVEEQLSLMLQLVPDWISETKASSGDLLVRINKMSTAETVRARLEEATSHDISLIY
# Target: T1, GST-AIP1 (full-length GST::AIP1) (Arabidopsis thaliana)
# Test: pull-down; in vitro GST pulldown of bacterially expressed recombinant GST-AIP1 with HIS-tagged proteins; immunoblot with anti-ABAP1 or anti-HIS
row,binding,Binder
1,binds,B1

# Target: T2, C-terminal portion of AIP1 containing the DUF724 domain (Arabidopsis thaliana)
# Test: two-hybrid; S. cerevisiae PJ694 co-transformed; selection on -leu/-trp/-his or -leu/-trp/-his/-ade, 3 days at 30 °C; C-terminal portion of AIP1 (DUF724) fused with GAL4 AD against GAL4 DBD fusions (Additional File 4); Additional File 10 calls the AIP1 portion the bait
row,binding,Binder
1,no binding,B2
2,no binding,B3
3,no binding,B4
4,no binding,B5
5,no binding,B6
6,no binding,B7
7,no binding,B8
